# Measured values from PubChem BioAssay AID894 (National Center for Advancing Translational Sciences (NCATS), 2007).
# The whole screen tested about 150,000 compounds, of which about 6,500 (4.3%) were called active. The inconclusive results got no clear call from the source; some entries with a clear call stand among them for comparison. Calls come from the whole dose curve; as a rule, active = well fitted inhibition curve with a large enough effect (not every such curve was filed as active); inconclusive = small, poorly fitted or top-dose-only effect, or another doubt; inactive = no such curve, though single readings can be large or run the other way. Potencies of inconclusive entries are left out as doubtful fits.
# Biological target: 15-hydroxyprostaglandin dehydrogenase [NAD(+)] (Homo sapiens) (UniProt P15428)
# UniProt P15428, sequence (P15428 whole entry, looked up): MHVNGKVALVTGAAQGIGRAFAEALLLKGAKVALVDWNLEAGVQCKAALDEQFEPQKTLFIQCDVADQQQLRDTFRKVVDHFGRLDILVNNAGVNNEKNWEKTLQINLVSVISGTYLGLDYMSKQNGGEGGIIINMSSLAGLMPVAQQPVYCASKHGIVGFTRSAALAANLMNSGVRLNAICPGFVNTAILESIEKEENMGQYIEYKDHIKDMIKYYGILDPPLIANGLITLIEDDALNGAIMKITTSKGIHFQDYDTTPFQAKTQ
# Assay: qHTS Assay for Inhibitors of HPGD (15-Hydroxyprostaglandin Dehydrogenase)
# Conditions: purified HPGD, NADH fluorescence kinetic, PGE2 substrate; activity change, negative = inhibition: active compounds read low
# Method in brief: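 NADH formation kinetics: reaction with 30 uM PGE2 and 1 mM NAD+ (final), 20 nM enzyme, Tris-HCl pH 8 with Tween 20, after 15 min compound preincubation at room temperature. Fluorescence change, last versus first of five reads.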
# % is set by controls: 0 for no effect and ±100 for the full control effect; potency is the fitted concentration of half-maximal effect; tags give direction and shape of the fitted curve.
SMILES,Potency,"activity change, negative = inhibition"
Cn1c(C(=O)OCC(=O)NCC2CCCO2)cc2sccc21 (centres undefined),active: 15.8 µM,
COc1ccc(OC)c(-n2c(C)ccc2-c2ccc(S(C)(=O)=O)cc2)c1,"inconclusive [inhibitor, partial curve]",
CCCCOC(=O)c1ccc(NC(=O)c2nn(C)cc2Br)cc1,"inconclusive [inhibitor, single point]",
Cc1ccc2nc(-c3ccccc3)cn2c1,"inconclusive [inhibitor, partial curve]",
Cc1ccc(C)c(CSc2nnc(-c3cccnc3)n2N)c1,"inconclusive [inhibitor, partial curve]",
C#CCn1c(=NC(=O)c2cc(Cl)sc2Cl)sc2cc(S(N)(=O)=O)ccc21,"inconclusive [inhibitor, partial curve]",
COc1ccc(NS(=O)(=O)c2cc(NC(=O)/C=C/c3cc(OC)ccc3OC)ccc2N2CCCCC2)cc1,"inconclusive [inhibitor, partial curve, poor fit]",
CC(NC(=O)Cc1cccs1)C(c1cccs1)N1CCOCC1 (centres undefined),"inconclusive [inhibitor, partial curve]",
CCc1c(C)nc2cc(-c3ccc(OC)c(OC)c3)nn2c1NCC1CC1,"inconclusive [inhibitor, partial curve]",
COc1ccc(C2=NN(C(=O)CSc3ncccn3)C(c3ccc(C)cc3)C2)cc1 (centres undefined),"inconclusive [inhibitor, partial curve]",
CCOc1cc(-c2nc(-c3ccc(C)nc3OCC)no2)cc(OCC)c1OCC,"inconclusive [inhibitor, partial curve]",
CC(=O)c1cccc(NC(=S)NC(=O)c2cccc(C)c2)c1,active: 22.4 µM,
Clc1ccc(-c2nc(N3CCCCC3)nc3ccccc23)cc1,,inactive: -18.3%
c1ccc(Cc2nnc(-c3ccccc3)o2)cc1,active: 7.94 µM,
COC(=O)c1nc(-c2ccc(C)cc2)oc1N(C)C,"inconclusive [inhibitor, partial curve]",
Cc1cccc(CN2C(=O)N/C(=C/c3ccc(C)s3)C2=O)c1,"inconclusive [inhibitor, partial curve]",
CCOC(=O)C1=CN(C)C=C(C(=O)OCC)C1c1ccsc1,"inconclusive [inhibitor, partial curve]",
CCc1nc(SCc2cc(Cl)ccc2OC)n[nH]1,active: 12.6 µM,
CCOCCSc1nc2c(c(-c3cccs3)c1C#N)CC/C2=C/c1cccs1,,inconclusive: -31.9% [inhibitor]
